{"source": "patent US20230192887A1", "about": "(published 2023)", "binders": {"B1": {"name": "Bispecific Protein #6 (bispecific antibody, human IgG1, kappa)", "heavy 1": "EVQLVESGGGLVQPGGSLRLSCAASGFTFTDYTMDWVRQAPGKGLEWVADVNPNSGGSIYNQRFKGRFTLSVDRSKNTLYLQMNSLRAEDTAVYYCARNLGPSFYFDYWGQGTLVTVSSASTKGPSVF[in this place about 250 residues][in this place about 200 residues]", "heavy 2": "EVQLVESGGGLVQPGGSLRLSCAASGFTFTDYTMDWVRQAPGKGLEWVADVNPNSGGSIYNQRFKGRFTLSVDRSKNTLYLQMNSLRAEDTAVYYCARNLGPSFYFDYWGQGTLVTVSSASTKGPSVF[in this place about 450 residues with a human IgG1 Fc]", "light": "DIQMTQSPSSLSASVGDRVTITCKASQDVSIGVAWYQQKPGKAPKLLIYSASYRYTGVPSRFSGSGSGTDFTLTISSLQPEDFATYYCQQYYIYPYTFGQGTKVEIKRTVAAPSVF[in this place about 200 residues]"}}, "key": {"[1]": {"biological_target": "HER2 on HER2^+ tumor cell lines (BT474, OE19, ZR75) (UniProt P04626)", "test": "cell-based or functional assay"}, "[2]": {"biological_target": "T1, recombinant human TfR apical domain (human)", "T1 construct": "also called transferrin receptor protein 1 apical domain", "test": "SPR (Biacore T200 or 8K); protein captured on anti-human Fab chip, recombinant human TfR apical domain as analyte; 1:1 Langmuir fit", "procedure": "Affinities of the bispecific proteins were measured by SPR using a Biacore T200 or a Biacore 8K. Biacore™ Series S CM5 sensor chips were immobilized with monoclonal mouse anti-human IgG (Fc) antibody for HER2 affinity measurements or mouse anti-human Fab for TfR affinity measurements (human antibody or Fab capture kit from GE Healthcare). Serial 3-fold dilutions of analyte (recombinant HER2 extracellular domain or recombinant TfR apical domain) were injected at a flow rate of 30 μL/min. Each sample was analyzed using a 3-minute association and a 10-minute dissociation for HER2 extracellular domain binding and a 40-second association and a 3-minute dissociation for human TfR apical domain binding. After each injection, the chip was regenerated using 3 M MgCl₂ or 50 mM glycine at pH 2.0. Binding response was corrected by subtracting the RU from a flow cell capturing an irrelevant IgG at similar density. A 1:1 Languir model of simultaneous fitting of kon and koff was used for kinetics analysis. […] The two constructs are described below."}}, "data": [{"binder": "B1", "values": [{"measurement": "IC50 (nM), BT474 + NRG1", "setting": "[1]", "result": 5.1, "unit": "nM"}, {"measurement": "IC50 (nM), BT-474", "setting": "[1]", "result": 0.61, "unit": "nM"}, {"measurement": "IC50 (nM), OE19", "setting": "[1]", "result": 0.86, "unit": "nM"}, {"measurement": "Min Cell viability (%), BT474 + NRG1", "setting": "[1]", "result": 40, "unit": "%"}, {"measurement": "Min Cell viability (%), BT-474", "setting": "[1]", "result": 26, "unit": "%"}, {"measurement": "Min Cell viability (%), OE19", "setting": "[1]", "result": 42, "unit": "%"}, {"measurement": "Min Cell viability (%), ZR75-30", "setting": "[1]", "result": 85, "unit": "%"}, {"measurement": "Kd", "setting": "[2]", "result": 490, "unit": "nM"}]}]}
